According to patent US20230242671A1:

Molecular target: CaptureSelect Kappa XL ligand
Test: CaptureSelect Kappa XL affinity column after Protein A

% Flow Through (FT): 100%
B1: cMet mAb (DKK on both LCs) (antibody, human IgG1)
heavy: EVQLVESGGGLVQPGGSLRLSCAASGYTFTSYWLHWVRKAPGKGLEWVGMIDPSNSDTRFNPEFKDRFTISADTSKNTAYLQMNSLRAEDTAVYYCATYRSYVTPLDYWGQGTLVTVSSASTKGPSVFPLAPSSKSTSGGTAALGCLVKDYFPEPVTVSWNSGALTSGVATGPAVLQSSGLYSLSSVVTVPSSSLGTQTYICNVNHKPSNTKVDKKV[sequence of human IgG1 Fc with changes omitted]
light: RIQMTQSPSSLSASVGDRVTITCKSSQSLLYTSSQKNYLAWYQDKPGKAPKLLIYWASTRESGVPSRFSGSGSGTDFTLTISSLQPEDFATYYCQQYYAYPWTFGQGTKVEIKRTDAAPSVFIFPPSDEQLKSGTASVVCYLNNFYPRKAKVQWKVDNALQSGNSQESVTEQDSKDSTYSLWSTLTLSKADYEKHKVYACEVTHKGLSSPVTKSFNRGEC
